# Source: the supplement of paper PMC3334620
# The full ranking holds about 33,000 sequences; the median of “E-score (-0.5 to 0.5)” is about -0.017, and the highest 2% start at about 0.3. This is one part of the list.
# Molecular target: T1, Sut1 (UniProt P53032)
# T1 sequence: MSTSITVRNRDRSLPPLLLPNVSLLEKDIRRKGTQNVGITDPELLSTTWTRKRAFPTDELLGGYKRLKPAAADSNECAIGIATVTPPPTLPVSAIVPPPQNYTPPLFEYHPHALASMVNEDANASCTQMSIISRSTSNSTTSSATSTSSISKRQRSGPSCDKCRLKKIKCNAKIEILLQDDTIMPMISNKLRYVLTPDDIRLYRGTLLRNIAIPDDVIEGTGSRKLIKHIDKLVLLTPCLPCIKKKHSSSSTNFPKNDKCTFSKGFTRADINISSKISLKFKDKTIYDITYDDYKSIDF
# Experiment: PBM E-score (8-mer binding enrichment) (E-score (-0.5 to 0.5)); higher = stronger / more preferred TF binding; most listed sequences are background and not binding sites
# Settings: protein concentration: 200 nM; construct: GST-full length
# Summary of the method: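 Full-length yeast transcription factors or their DNA-binding domains, GST-tagged and expressed with PURExpress, were applied at about 100-200 nM to universal all-10-mer Agilent arrays. These arrays had been made double-stranded by primer extension on fresh or once-stripped slides. Detection used fluorescent anti-GST, normalisation used masliner, and E-scores for ungapped eight-base words pooled with reverse complements came from the Universal PBM Analysis Suite.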
row,Sequence,PBM E-score
1,AATTACAC,0.181
2,ATCGTATA,0.212
3,CAAGTGCA,-0.214
4,AAACCAAC,0.025
5,ATTATAGG,0.102
6,ATGGCGGC,0.108
7,ACTGACCA,-0.138
8,CAATAAGG,0.0818
9,AAACCTAT,0.123
10,GCAATTAC,0.088
11,TAATCAAA,0.19
12,CCTCTACG,-0.173
13,GCAGATCA,-0.124
14,CCTCCGGC,0.106
15,ACCAGGAT,-0.049
16,TCCTGACA,-0.077
17,CTATATGA,0.161
18,ACACCAAT,0.0647
19,CGGTGTGC,-0.144
20,ACGGCTTG,-0.24
21,ATTCCTAG,-0.00718
22,GGTTGAGA,-0.0204
23,TAAAAAAA,0.253
24,ACTGTACA,-0.154
25,AGCGTGTC,-0.148

row,Sequence,PBM E-score
1,CACGCCGC,-0.0908
2,CGCCGACA,-0.0995
3,ACTTCTAC,0.00924
4,TATCTGGA,0.0128
5,AACGTGAG,-0.0804
6,AAGGCAGG,-0.155
7,CTATATAA,0.158
8,CAGCCAAC,-0.0365
9,CGGACCCA,0.234
10,AGCGGTAT,0.0737
11,AATATTCT,0.221
12,CAGAACTG,0.0389
13,AGGTCAAT,0.0541
14,GTGCATCA,0.0602
15,GGCAGCTA,-0.095
16,AGAGCGTC,-0.0757
17,GGCGCTAC,-0.182
18,AAAGGCGA,-0.148
19,CGGATCGA,-0.145
20,ACACGGTG,-0.0462
21,ATTCAGGC,-0.142
22,CCAACCCA,-0.254
23,ACGACCAT,-0.137
24,CCACGGTC,-0.275
25,AAGTGGCC,-0.00917

row,Sequence,PBM E-score
1,ATTGCGTA,-0.00313
2,ATAGCTAT,0.0458
3,CATCCGCG,-0.0456
4,AATGACGT,0.031
5,AAGTACTA,0.201
6,TGATCCAA,0.135
7,ACTATACA,0.128
8,TAATATGA,0.315
9,CGAGGGTA,-0.156
10,ATAAGGAT,0.116
11,CGTAATGA,-3e-05
12,CTTGAAGA,0.0532
13,ACAGCTTA,0.0534
14,CGGCATCA,-0.106
15,GCTGGTAA,-0.104
16,GTAAAACA,0
17,AGTAGTTA,0.182
18,CTCGAGAA,-0.132
19,ATGCTAGG,-0.072
20,CGCTATGA,0.0878
21,AGTCGGAT,0.173
22,ACCGCTAC,-0.18
23,AGTCGCCC,-0.182
24,CGAGCCCA,-0.321
25,CGGCGTCC,-0.031

row,Sequence,PBM E-score
1,CAATGAGC,-0.0381
2,AAGTCATT,-0.00286
3,AGAGGTAG,-0.0764
4,TATAAAAA,0.318
5,AAGCCTAA,0.15
6,ATGCATGA,0.128
7,CTAGACTC,-0.0737
8,CAATTGTG,0.0225
9,AAGTCTCC,-0.128
10,CATGAGCA,-0.0355
11,ATACCGTC,-0.0232
12,AAACTCAT,0.204
13,AGCCACAC,-0.124
14,CTGATACA,-0.0307
15,CGACTACG,-0.0291
16,CGCAGATC,-0.224
17,CGAGTCAA,-0.0592
18,TAAACTCA,0.107
19,CGGCGCCG,0.221
20,AGACATGC,-0.188
21,AACTCTCC,0.161
22,CGAAACAG,0.0566
23,TGCGTGAA,0.134
24,AAGGGGTA,-0.214
25,AACACCGA,0.204

row,Sequence,PBM E-score
1,GCTACCAC,-0.205
2,CAGCTGTC,0.0125
3,AGGTGCAT,-0.136
4,AATCTACT,0.202
5,GCATCGAA,0.011
6,GCATCACA,-0.0805
7,GTCTTGCA,-0.0831
8,AGCTCGCC,-0.16
9,ATTCGTGG,-0.137
10,CTGCGGGA,-0.288
11,GCCTACAC,-0.194
12,AGACCGTG,-0.103
13,ACGTGAGC,-0.259
14,GAATCCGC,-0.0771
15,ACCCAGGG,-0.308
16,TAACATCA,0.171
17,CCGACCGC,-0.2
18,TAGGACGA,-0.0602
19,GTCTGACA,0.0529
20,ACGCGTCA,-0.0969
21,CGAATCCA,-0.00116
22,ATTTAAGC,0.173
23,GCAGCCTA,-0.122
24,GTGCATTA,0.053
25,TGTATACA,0.255

row,Sequence,PBM E-score
1,AGCATCTA,0.0729
2,GGCACCTA,-0.0802
3,CACATCGG,-0.119
4,AGTCGAGC,-0.205
5,AGTAATTC,0.307
6,AAACATTG,0.0467
7,AGAGAATA,0.147
8,ACACCCAG,-0.255
9,TCCCTTCA,-0.111
10,AACATCGG,0.0588
11,CTATCCAA,0.057
12,AATAAGGG,-0.0871
13,CTGTCCTC,-0.065
14,ACGCTACG,-0.131
15,GACGTAGC,-0.198
16,CGTAAACA,0.0673
17,GTATGTGA,0.124
18,GTCAGGTA,-0.111
19,ATAGAGCA,0.0192
20,CATATGTA,0.0389
21,TAGCTTCA,-0.0155
22,CGACATGA,-0.0559
23,GGACCAAC,0.00139
24,AGCTGACG,-0.00958
25,ATATTCTA,0.185

row,Sequence,PBM E-score
1,AAATGGGC,0.0434
2,CGAGGTAC,-0.0755
3,TAGTGATA,-0.118
4,CTACTTCC,0.00499
5,CTTCATTA,0.196
6,GGTGATGA,-0.0168
7,CAACACCA,-0.0101
8,AAACGAAC,0.244
9,CGCTACCA,-0.108
10,GGAGATGA,0.245
11,TACGAGCA,-0.095
12,CCTTTTCC,-0.0113
13,GTTGCTGA,0.0547
14,ACAAACAC,0.185
15,CATCAACC,0.00545
16,CATTTTGC,0.154
17,GGTCAACA,0.0614
18,AGGGATAC,-0.295
19,AACCAGCG,0.00604
20,GTTCATGA,0.16
21,CTCAATAC,0.241
22,CATTAGCG,-0.00829
23,AGCGCATG,-0.208
24,AGAGATGA,0.0449
25,ATGCTCAG,0.0264

row,Sequence,PBM E-score
1,AGCAGAAA,0.175
2,AACCCAAC,-0.0321
3,ACTAGAAA,0.114
4,GATTCCTA,0.026
5,TAGTCCCA,-0.21
6,ACTTTGAC,0.052
7,ATGAAGCA,0.0563
8,GAAAGACA,0.29
9,CGCATGGC,0.0513
10,CGGCAATC,0.0237
11,GATGACGC,-0.0987
12,AGTATTTG,0.107
13,AGAGCAAC,-0.169
14,ACGTAACT,0.009
15,CCGGATCG,0.123
16,ATTGCGGG,-0.0205
17,AACGTTAT,0.17
18,ACATACCA,-0.13
19,CTCATTCC,0.0207
20,GGTCGGGA,-0.106
21,GCAGTTCA,-0.0012
22,CGTTCTGA,-0.156
23,CCGGGTTA,0.104
24,CAGGTTTC,0.121
25,AGAACTCG,-0.03

row,Sequence,PBM E-score
1,AGCGCTAT,-0.0176
2,AAGACCGA,0.238
3,AAGCGCTC,0.00993
4,CTGTGAGA,-0.0848
5,GTGTGCCA,-0.129
6,ATTATCCG,0.149
7,AAGTCAAT,0.178
8,ATTCCTAC,0.0631
9,AGTCACGA,-0.0583
10,CTCTCACA,0.0236
11,CCGGAGGC,0.156
12,CGTTACTA,0.0702
13,AGACATCC,-0.197
14,AGCCATAA,-0.0493
15,GAGACTTA,-0.0721
16,AAGCGTAA,0.057
17,CTCCATGA,0.043
18,GACATATA,0.233
19,TCAAACGA,0.00602
